The source of these data is the BET-seq Pho4 binding data (Le et al. 2018).

Some of the results follow. Values were computed here from the reads of four pooled replicates and scatter widely.

This assay addresses T1, Pho4 (S. cerevisiae) (UniProt P07270).
T1 sequence: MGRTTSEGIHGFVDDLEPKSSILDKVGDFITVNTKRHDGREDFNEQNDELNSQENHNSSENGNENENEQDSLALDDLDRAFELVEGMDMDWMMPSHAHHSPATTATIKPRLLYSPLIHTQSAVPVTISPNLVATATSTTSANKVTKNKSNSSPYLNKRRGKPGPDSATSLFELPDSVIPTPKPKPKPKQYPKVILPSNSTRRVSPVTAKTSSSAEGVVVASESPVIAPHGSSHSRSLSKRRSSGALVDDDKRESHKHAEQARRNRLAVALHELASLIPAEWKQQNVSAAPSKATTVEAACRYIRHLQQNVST
Description: relative binding free energy (BET-seq); higher = weaker binding. The settings on record: reference: library average.
Regarding ATATACACGTGGTATG, the “relative binding free energy” value is -0.07 kcal/mol.
On to TAGGTCACGTGTCTTG, for which the “relative binding free energy” value was 0.08 kcal/mol.
Regarding AGTTGCACGTGTCTTT, the “relative binding free energy” value was -0.11 kcal/mol.
With CAGTACACGTGTGTTT the figure was 0.22 kcal/mol; with AGAGTCACGTGGAGGC, 0.09 kcal/mol.
Take TCTGTCACGTGACGTG: the “relative binding free energy” value amounted to 0.26 kcal/mol.
Regarding GGGATCACGTGGTCGT, the “relative binding free energy” value was found to be 0.18 kcal/mol.
With TGGATCACGTGCTGTC the figure was 0.33 kcal/mol.
Turning to ATAGGCACGTGAGTAG, the “relative binding free energy” value amounted to 0.09 kcal/mol.
Take CGCGTCACGTGTTATT: the “relative binding free energy” value stood at 0.19 kcal/mol.
Under TTTTGCACGTGTTCAA stands 0.15 kcal/mol.
With GTTGGCACGTGCCAGG the figure was -0.19 kcal/mol; with TTCTTCACGTGGTCGG, 0.13 kcal/mol; with TCGGGCACGTGGAAGT, -0.04 kcal/mol.
Under AAGCGCACGTGGAGCG stands 0.02 kcal/mol; under CGGTGCACGTGTTGCG, -0.15 kcal/mol; under GTAAACACGTGTCGTG, 0 kcal/mol.
Regarding TATTACACGTGGCGGA, the “relative binding free energy” value is -0.01 kcal/mol.
Consider TAAATCACGTGGTTAT, for which the “relative binding free energy” value came to 0.09 kcal/mol.
Regarding TTGCGCACGTGAGGTA, the “relative binding free energy” value stood at 0.2 kcal/mol.
As to CTAGTCACGTGGTATG, the “relative binding free energy” value is -0.08 kcal/mol.
On to AAATGCACGTGTGTCG, for which the “relative binding free energy” value was -0.07 kcal/mol.
Under CTTAGCACGTGGTTGA stands -0.14 kcal/mol; under ATTGTCACGTGTCTTG, 0.11 kcal/mol.
Under AATGGCACGTGTCTTT stands -0.14 kcal/mol.
Regarding TGGCGCACGTGGTTAT, the “relative binding free energy” value was -0.2 kcal/mol.
With GTGTCCACGTGGTTGG the figure was 0 kcal/mol; with CTGGTCACGTGTGGAG, 0.04 kcal/mol; with TTAATCACGTGTTGCA, -0.02 kcal/mol.
In the case of AGGTTCACGTGTCTGT, the “relative binding free energy” value was determined as 0.29 kcal/mol.
For ATGCTCACGTGAAGGG, the “relative binding free energy” value stood at 0.36 kcal/mol.
Under GGTTACACGTGTATTT stands 0.12 kcal/mol; under GTTATCACGTGTATTC, 0.27 kcal/mol; under GTGAGCACGTGGAGGT, -0.08 kcal/mol.
Under TAAATCACGTGAGTGA stands 0.23 kcal/mol; under AAGGACACGTGGTTTG, 0 kcal/mol; under CTTGTCACGTGCTTGG, -0.09 kcal/mol.
GGCGGCACGTGCGGGC: the “relative binding free energy” value is -0.16 kcal/mol.
Regarding CGGGACACGTGGTGTT, the “relative binding free energy” value is -0.04 kcal/mol.
Under CATAACACGTGTTGTT stands -0.1 kcal/mol; under TTATTCACGTGAAGTT, 0.45 kcal/mol; under TGCAACACGTGCGTGG, -0.1 kcal/mol.
Under TTTAGCACGTGTTTGC stands 0.02 kcal/mol.
Under TCTGGCACGTGTGTGT stands -0.07 kcal/mol; under GTTTGCACGTGTCTAG, 0.06 kcal/mol; under TCAGTCACGTGAACGG, 0.41 kcal/mol.
In the case of TCGTCCACGTGAGTGG, the “relative binding free energy” value came out at 0.16 kcal/mol.
Regarding GATGTCACGTGAATTT, the “relative binding free energy” value was 0.37 kcal/mol.
With CTTTGCACGTGCGGGT, the “relative binding free energy” value is -0.06 kcal/mol.
Regarding TGGGGCACGTGGTATT, the “relative binding free energy” value was -0.14 kcal/mol.
Under TTGTACACGTGCCGGT stands -0.14 kcal/mol.
As for CTTAGCACGTGTGTTT, the “relative binding free energy” value came to 0.05 kcal/mol.
Under GTAGTCACGTGTAATT stands 0.29 kcal/mol; under GGTAACACGTGTTTTC, 0.12 kcal/mol.
As to TTTCACACGTGTTGTA, the “relative binding free energy” value was 0.19 kcal/mol.
With TATCGCACGTGAGGAG, the “relative binding free energy” value was determined as 0.38 kcal/mol.
Under GGCTACACGTGAGGGT stands 0.35 kcal/mol.
As for TGTGTCACGTGTCTTC, the “relative binding free energy” value came to 0.18 kcal/mol.
Under GGTCGCACGTGTCTGG stands 0.06 kcal/mol; under TTGGGCACGTGTATAC, -0.15 kcal/mol.
Consider ATCGGCACGTGAGGCG, for which the “relative binding free energy” value was 0.09 kcal/mol.
Under TTGGGCACGTGCGAGC stands -0.18 kcal/mol; under TTGAGCACGTGTACGT, -0.17 kcal/mol.
On to GCTATCACGTGGGGGA, for which the “relative binding free energy” value was -0.02 kcal/mol.
As for GTGTTCACGTGCATGG, the “relative binding free energy” value turned out to be 0.3 kcal/mol.
Turning to GGAGGCACGTGGTGCA, the “relative binding free energy” value was -0.22 kcal/mol.
With GGCAGCACGTGAGTGG the figure was 0.04 kcal/mol; with GTAGGCACGTGTGGGT, 0.06 kcal/mol.
With CTGGTCACGTGAATGT the figure was 0.4 kcal/mol; with TCTTTCACGTGGCTGG, 0.35 kcal/mol; with TCTGGCACGTGCTGTG, -0.1 kcal/mol.
As for AGGAGCACGTGTCGCG, the “relative binding free energy” value is -0.03 kcal/mol.
Under GTTCACACGTGATATT stands 0.31 kcal/mol; under TCAGGCACGTGGTTGT, -0.22 kcal/mol; under CTGGTCACGTGCGGTG, 0.09 kcal/mol.
With TTTTGCACGTGTTCTT, the “relative binding free energy” value turned out to be 0 kcal/mol.
In the case of GGTGCCACGTGAAATG, the “relative binding free energy” value turned out to be 0.43 kcal/mol.
With AGTGTCACGTGTACAT the figure was 0.11 kcal/mol; with AATGACACGTGGGTTG, -0.04 kcal/mol; with TGTCTCACGTGTTGTT, 0.21 kcal/mol.
With TGCTACACGTGTGTGT the figure was 0.05 kcal/mol; with AGGATCACGTGCTATG, 0.06 kcal/mol.
With TGTCGCACGTGTGAGA, the “relative binding free energy” value is -0.01 kcal/mol.
GTTTTCACGTGAAAGT: the “relative binding free energy” value stood at 0.38 kcal/mol.
As for TCTTACACGTGGTTGA, the “relative binding free energy” value was 0 kcal/mol.
Under CGTGTCACGTGTTCGA stands 0.11 kcal/mol; under TAGGACACGTGAGCGG, 0.05 kcal/mol.
Under TGGGCCACGTGCTCGG stands -0.19 kcal/mol; under GGAGTCACGTGGGTCA, 0.07 kcal/mol.
On to AATTTCACGTGTTACG, for which the “relative binding free energy” value worked out at 0.37 kcal/mol.
Turning to GCGGACACGTGGCGGT, the “relative binding free energy” value was -0.16 kcal/mol.
For the sequence TATGTCACGTGAGAAG, the “relative binding free energy” value was 0.43 kcal/mol.
With TCGTACACGTGGGATT the figure was 0.02 kcal/mol; with GGGTACACGTGGCATT, 0.03 kcal/mol.
Turning to TGGGTCACGTGGTACG, the “relative binding free energy” value was found to be 0.01 kcal/mol.
On to TGGATCACGTGGTTTC, for which the “relative binding free energy” value is 0.18 kcal/mol.
For TGTGACACGTGGCAGA, the “relative binding free energy” value came to 0.05 kcal/mol.
With TGTGGCACGTGCCGGG the figure was -0.1 kcal/mol; with CGGTTCACGTGTGTGA, 0.13 kcal/mol; with GTGGGCACGTGGCTAG, -0.19 kcal/mol.
As to AGGGGCACGTGGTAAA, the “relative binding free energy” value was -0.12 kcal/mol.
Under TGTGCCACGTGGAGTG stands -0.07 kcal/mol.
Regarding GCGCTCACGTGATTGG, the “relative binding free energy” value was found to be 0.43 kcal/mol.
For GGTACCACGTGTTAGG, the “relative binding free energy” value was determined as 0.11 kcal/mol.
With ACTGTCACGTGTAAGT the figure was 0.16 kcal/mol; with GCTGTCACGTGCTTTG, 0.09 kcal/mol.
With TGTGCCACGTGAGAGT the figure was 0.18 kcal/mol; with TCAGTCACGTGGAGTG, -0.04 kcal/mol.
As to GGTGCCACGTGTTAGA, the “relative binding free energy” value was -0.11 kcal/mol.
With ACAATCACGTGGGTGG the figure was 0.07 kcal/mol; with AGCGGCACGTGTGCGA, -0.11 kcal/mol; with ATGATCACGTGTGTTT, 0.25 kcal/mol.
With AGTTGCACGTGGTCCG the figure was -0.14 kcal/mol.
With TGTATCACGTGAGGTT the figure was 0.22 kcal/mol; with CAGTGCACGTGAGTGG, 0.19 kcal/mol.
